Molecular target: Tie-2 receptor in EAhy926 cells (UniProt Q02763 23-1124, limits assumed)
Experiment: cell-based or functional assay

Sequence of UniProt Q02763 (Q02763 23-1124 limits assumed): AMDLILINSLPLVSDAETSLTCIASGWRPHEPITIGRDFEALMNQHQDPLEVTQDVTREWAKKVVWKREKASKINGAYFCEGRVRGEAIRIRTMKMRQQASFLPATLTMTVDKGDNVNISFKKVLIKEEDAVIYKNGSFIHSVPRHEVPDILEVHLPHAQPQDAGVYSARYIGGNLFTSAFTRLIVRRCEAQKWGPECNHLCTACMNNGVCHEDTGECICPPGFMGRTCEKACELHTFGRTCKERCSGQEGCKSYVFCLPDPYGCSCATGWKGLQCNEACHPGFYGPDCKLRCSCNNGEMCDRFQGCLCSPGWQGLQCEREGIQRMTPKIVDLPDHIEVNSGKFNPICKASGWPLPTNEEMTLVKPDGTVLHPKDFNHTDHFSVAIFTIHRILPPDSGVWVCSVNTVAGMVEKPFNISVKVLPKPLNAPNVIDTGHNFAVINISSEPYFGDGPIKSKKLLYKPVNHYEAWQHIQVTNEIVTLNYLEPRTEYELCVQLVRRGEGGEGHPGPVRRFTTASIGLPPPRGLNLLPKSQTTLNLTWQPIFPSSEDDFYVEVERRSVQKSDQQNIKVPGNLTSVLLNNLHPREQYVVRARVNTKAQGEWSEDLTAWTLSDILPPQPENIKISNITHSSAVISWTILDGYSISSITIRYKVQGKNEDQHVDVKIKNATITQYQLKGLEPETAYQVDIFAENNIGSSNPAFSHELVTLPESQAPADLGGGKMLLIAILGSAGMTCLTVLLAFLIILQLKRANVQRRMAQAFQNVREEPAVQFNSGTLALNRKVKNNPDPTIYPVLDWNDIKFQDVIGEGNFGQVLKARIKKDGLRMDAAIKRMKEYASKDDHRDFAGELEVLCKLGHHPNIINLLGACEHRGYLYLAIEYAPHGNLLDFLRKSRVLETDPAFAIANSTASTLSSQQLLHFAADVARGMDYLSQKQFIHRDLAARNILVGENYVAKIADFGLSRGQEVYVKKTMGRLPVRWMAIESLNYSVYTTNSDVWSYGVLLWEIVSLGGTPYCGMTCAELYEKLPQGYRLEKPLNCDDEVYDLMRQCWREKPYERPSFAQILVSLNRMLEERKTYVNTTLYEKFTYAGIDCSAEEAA

B1: stable CHO clone-derived Ang-2-FD-Fc-FD protein (Fc fusion)
chain: DCAEVFKSGHTTNGIYTLTFPNSTEEIKAYCDMEAGGGGWTIIQRREDGSVDFQRTWKEYKVGFGNPSGEYWLGNEFVSQLTNQQRYVLKIHLKDWEGNEAYSLYEHFYLSSEELNYRIHLKGLTGTAGKISSISQPGNDFSTKDGDNDKCICKCSQMLTGGWWFDACGPSNLNGMYYPQRQNTNKFNGIKWYYWKGSGYSLKATTMMIRPADFGGPG[human IgG1 Fc skipped]GGGGSGAPRDCAEVFKSGHTTNGIYTLTFPNSTEEIKAYCDMEAGGGGWTIIQRREDGSVDFQRTWKEYKVGFGNPSGEYWLGNEFVSQLTNQQRYVLKIHLKDWEGNEAYSLYEHFYLSSEELNYRIHLKGLTGTAGKISSISQPGNDFSTKDGDNDKCICKCSQMLTGGWWFDACGPSNLNGMYYPQRQNTNKFNGIKWYYWKGSGYSLKATTMMIRPADF
In the case of B1, the “block of stable CHO clone-derived Ang-1-FD-Fc-FD-mediated Tie-2 receptor phosphorylation in EAhy926 cells” value is reported as ≥ 40 fold molar excess of stable CHO clone-derived Ang-1-FD-Fc-FD.
